Measured values taken from publication PMC12806337.
Where two headings read alike, the source gives them in different places. No constants are given. Whether binding was seen depends on the method and setting. Binding seen in cells or lysates may run through a third protein. Some binding calls cover weakened binding; strength is not graded here. Values belong to the molecule of their own block, whether it stands above or below them.

By UniProt entry, the sequences of proteins in these tests, tags left out. Where a name states a change or a piece, a line headed by the entry shows the natural chain unless it says otherwise. Chains listed by the source or under a name are the forms on record and can include a tag or linker. Residues count along the entry.
UniProt Q93034: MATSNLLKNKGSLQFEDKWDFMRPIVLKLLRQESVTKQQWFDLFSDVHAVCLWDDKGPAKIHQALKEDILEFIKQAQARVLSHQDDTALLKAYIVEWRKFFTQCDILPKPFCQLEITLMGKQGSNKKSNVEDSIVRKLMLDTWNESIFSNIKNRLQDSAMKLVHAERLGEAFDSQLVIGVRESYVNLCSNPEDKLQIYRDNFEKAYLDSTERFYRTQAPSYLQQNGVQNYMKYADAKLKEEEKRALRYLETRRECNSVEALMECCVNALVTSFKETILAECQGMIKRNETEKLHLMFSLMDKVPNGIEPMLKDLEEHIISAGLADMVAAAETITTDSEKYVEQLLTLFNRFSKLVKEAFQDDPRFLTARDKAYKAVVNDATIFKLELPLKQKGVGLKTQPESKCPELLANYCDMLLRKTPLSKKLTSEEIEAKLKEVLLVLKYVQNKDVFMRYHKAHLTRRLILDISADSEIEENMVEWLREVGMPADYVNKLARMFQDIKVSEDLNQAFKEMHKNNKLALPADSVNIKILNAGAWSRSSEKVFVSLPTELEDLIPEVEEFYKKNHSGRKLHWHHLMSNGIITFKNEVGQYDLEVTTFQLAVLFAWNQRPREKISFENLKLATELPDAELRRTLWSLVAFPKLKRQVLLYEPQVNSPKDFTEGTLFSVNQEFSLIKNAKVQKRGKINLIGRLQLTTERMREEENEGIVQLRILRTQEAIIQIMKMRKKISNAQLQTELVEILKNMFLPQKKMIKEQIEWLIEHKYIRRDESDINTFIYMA
FLAG-CUL5-N (aa 1-400): residues 1-400 of Q93034
FLAG-CUL5-C (aa 385-780): residues 385-780 of Q93034
FLAG-CUL5-ΔSAG (deletion of aa 565-582) (Q93034, form named): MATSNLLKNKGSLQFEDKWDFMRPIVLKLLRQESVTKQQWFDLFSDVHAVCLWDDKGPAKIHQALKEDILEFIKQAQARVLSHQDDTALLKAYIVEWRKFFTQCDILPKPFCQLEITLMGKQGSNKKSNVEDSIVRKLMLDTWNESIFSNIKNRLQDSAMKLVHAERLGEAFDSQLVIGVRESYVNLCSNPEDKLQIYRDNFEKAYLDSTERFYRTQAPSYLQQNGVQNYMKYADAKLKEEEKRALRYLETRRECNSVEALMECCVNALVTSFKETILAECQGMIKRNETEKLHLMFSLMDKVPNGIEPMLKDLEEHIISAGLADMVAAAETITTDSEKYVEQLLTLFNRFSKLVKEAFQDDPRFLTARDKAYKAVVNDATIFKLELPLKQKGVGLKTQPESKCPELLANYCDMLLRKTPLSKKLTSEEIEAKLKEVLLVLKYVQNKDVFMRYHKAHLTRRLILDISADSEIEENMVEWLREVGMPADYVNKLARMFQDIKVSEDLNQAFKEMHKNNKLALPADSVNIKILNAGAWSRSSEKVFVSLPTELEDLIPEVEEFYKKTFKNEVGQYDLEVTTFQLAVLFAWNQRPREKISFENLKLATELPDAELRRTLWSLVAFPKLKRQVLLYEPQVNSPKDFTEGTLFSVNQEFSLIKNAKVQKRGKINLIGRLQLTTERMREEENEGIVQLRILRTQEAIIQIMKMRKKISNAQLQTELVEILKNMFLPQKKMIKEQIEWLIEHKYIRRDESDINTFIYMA
UniProt Q96J02: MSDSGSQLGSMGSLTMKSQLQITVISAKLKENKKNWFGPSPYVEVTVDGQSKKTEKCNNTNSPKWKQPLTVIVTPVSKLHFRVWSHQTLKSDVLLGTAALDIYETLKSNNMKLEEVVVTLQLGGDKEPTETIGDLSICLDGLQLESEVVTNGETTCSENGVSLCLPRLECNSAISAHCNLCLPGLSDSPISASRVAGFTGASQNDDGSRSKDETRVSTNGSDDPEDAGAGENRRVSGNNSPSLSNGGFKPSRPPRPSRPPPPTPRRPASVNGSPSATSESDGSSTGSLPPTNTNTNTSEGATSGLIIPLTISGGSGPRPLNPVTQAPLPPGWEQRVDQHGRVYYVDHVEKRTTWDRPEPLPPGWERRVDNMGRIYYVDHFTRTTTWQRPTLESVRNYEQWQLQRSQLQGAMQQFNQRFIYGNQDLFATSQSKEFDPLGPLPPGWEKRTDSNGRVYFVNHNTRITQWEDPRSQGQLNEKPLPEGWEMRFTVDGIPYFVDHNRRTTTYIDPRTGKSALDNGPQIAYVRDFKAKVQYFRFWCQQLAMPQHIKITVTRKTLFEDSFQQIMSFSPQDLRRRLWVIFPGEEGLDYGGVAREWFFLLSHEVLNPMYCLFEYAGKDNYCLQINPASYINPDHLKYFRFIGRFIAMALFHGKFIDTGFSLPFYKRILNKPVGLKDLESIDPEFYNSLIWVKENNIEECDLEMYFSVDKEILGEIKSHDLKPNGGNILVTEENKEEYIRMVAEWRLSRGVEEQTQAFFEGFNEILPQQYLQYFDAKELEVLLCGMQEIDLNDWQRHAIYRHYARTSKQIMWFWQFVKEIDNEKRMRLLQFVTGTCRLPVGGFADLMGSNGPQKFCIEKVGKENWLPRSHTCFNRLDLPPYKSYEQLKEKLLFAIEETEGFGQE
UniProt Q9NYG5: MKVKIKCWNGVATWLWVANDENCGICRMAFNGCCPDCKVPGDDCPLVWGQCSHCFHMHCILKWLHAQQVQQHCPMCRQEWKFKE
UniProt Q9UBF6: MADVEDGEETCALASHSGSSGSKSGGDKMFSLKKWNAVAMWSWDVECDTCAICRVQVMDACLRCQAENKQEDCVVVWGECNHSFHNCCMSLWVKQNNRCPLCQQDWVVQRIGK
UniProt Q86VP6: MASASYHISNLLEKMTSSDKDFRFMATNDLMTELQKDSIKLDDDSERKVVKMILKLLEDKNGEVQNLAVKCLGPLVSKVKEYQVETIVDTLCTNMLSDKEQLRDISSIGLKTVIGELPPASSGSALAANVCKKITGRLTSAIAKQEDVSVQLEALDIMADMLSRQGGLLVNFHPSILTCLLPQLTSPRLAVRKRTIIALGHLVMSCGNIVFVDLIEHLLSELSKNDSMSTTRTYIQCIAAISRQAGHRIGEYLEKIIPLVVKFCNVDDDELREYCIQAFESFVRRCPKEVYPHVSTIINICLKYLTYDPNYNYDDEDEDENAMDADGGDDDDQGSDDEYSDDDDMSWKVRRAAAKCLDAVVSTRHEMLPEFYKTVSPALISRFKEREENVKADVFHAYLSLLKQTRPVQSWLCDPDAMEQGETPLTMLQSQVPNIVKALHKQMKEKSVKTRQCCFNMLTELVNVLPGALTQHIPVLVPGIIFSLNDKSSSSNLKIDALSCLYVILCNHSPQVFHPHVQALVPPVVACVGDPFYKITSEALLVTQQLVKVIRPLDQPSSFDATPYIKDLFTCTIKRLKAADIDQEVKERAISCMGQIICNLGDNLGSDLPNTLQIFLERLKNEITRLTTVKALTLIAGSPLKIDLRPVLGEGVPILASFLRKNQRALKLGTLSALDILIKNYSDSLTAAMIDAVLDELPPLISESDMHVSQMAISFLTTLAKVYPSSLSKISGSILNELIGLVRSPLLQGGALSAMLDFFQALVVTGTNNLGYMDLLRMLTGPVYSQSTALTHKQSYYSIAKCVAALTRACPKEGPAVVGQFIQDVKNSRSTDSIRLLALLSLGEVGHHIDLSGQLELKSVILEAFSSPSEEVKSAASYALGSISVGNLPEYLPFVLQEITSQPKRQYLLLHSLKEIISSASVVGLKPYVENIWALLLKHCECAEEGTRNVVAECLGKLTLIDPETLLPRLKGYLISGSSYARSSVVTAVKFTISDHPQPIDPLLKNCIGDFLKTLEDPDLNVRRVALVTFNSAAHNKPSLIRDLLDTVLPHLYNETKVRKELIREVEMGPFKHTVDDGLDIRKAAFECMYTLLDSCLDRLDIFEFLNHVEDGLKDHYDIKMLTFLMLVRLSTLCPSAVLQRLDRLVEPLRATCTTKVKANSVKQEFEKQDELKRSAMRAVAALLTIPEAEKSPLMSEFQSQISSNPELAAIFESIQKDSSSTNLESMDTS
UniProt Q92905: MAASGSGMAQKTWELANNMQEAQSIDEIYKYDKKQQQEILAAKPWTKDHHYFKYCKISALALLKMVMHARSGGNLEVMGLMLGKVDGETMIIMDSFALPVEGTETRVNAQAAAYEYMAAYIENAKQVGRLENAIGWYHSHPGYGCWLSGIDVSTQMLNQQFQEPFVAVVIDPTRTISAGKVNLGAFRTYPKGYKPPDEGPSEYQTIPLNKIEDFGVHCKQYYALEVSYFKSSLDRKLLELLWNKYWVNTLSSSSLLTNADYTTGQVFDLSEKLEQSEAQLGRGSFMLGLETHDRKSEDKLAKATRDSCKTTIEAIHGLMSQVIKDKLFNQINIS

Columns and labels:
FLAG-CUL5 [1] = target: FLAG-CUL5 (UniProt Q93034); assay: co-IP; FLAG antibody-conjugated beads, 3 h, lysates of transfected HEK293 cells (50 mM Tris pH 7.5, 0.15 M NaCl, 1% NP-40, 0.1% SDS, 0.5% sodium deoxycholate, 1 mM EDTA, 1 mM DTT); endogenous prey detected by immunoblot; in some panels 1 µM MLN4924 for 12 h, siRNA to APC11, or co-transfected MYC-CUL5
FLAG-CUL5 [2] = target: FLAG-CUL5 (UniProt Q93034); assay: co-IP; FLAG antibody-conjugated beads, 3 h, lysate of MIA PaCa-2 cells with exogenous FLAG-CUL5; endogenous prey detected by immunoblot
[3] = target: endogenous CUL5 (human (endogenous in HEK293, MIA PaCa-2, A549, Hep3B, PLC/PRF/5)) (UniProt Q93034); assay: co-IP; endogenous IP with anti-CUL5 antibody (normal mouse IgG as control) and protein G sepharose from lysates of MIA PaCa-2, A549, Hep3B and PLC/PRF/5 cells; in some panels siRNA to APC11 or SAG for 72 h
FLAG-CUL5-N (aa 1-400) = FLAG-CUL5-N (aa 1-400) (UniProt Q93034); assay: co-IP; FLAG antibody-conjugated beads, 3 h, lysates of transfected HEK293 cells (50 mM Tris pH 7.5, 0.15 M NaCl, 1% NP-40, 0.1% SDS, 0.5% sodium deoxycholate, 1 mM EDTA, 1 mM DTT); endogenous prey detected by immunoblot; in some panels 1 µM MLN4924 for 12 h, siRNA to APC11, or co-transfected MYC-CUL5
[4] = target: FLAG-CUL5-ΔSAG (deletion of aa 565-582) (UniProt Q93034); assay: as above
FLAG-CUL5-C (aa 385-780) = FLAG-CUL5-C (aa 385-780) (UniProt Q93034); assay: as above
[5] = target: endogenous ITCH (human (endogenous in HEK293, Hep3B, PLC/PRF/5, HeLa)) (UniProt Q96J02); assay: co-IP; endogenous IP with anti-ITCH antibody (normal rabbit IgG as control) and protein G sepharose from lysates of Hep3B and PLC/PRF/5 cells
FLAG-APC11 W14A = FLAG-APC11 W14A (UniProt Q9NYG5); assay: co-IP; FLAG antibody-conjugated beads, 3 h, lysates of transfected HEK293 cells (50 mM Tris pH 7.5, 0.15 M NaCl, 1% NP-40, 0.1% SDS, 0.5% sodium deoxycholate, 1 mM EDTA, 1 mM DTT); endogenous prey detected by immunoblot; in some panels 1 µM MLN4924 for 12 h, siRNA to APC11, or co-transfected MYC-CUL5
FLAG-APC11 W8A = FLAG-APC11 W8A (UniProt Q9NYG5); assay: as above
FLAG-APC11 I5A = FLAG-APC11 I5A (UniProt Q9NYG5); assay: as above
FLAG-APC11 V3A = FLAG-APC11 V3A (UniProt Q9NYG5); assay: as above
FLAG-SAG = FLAG-SAG (UniProt Q9UBF6); assay: as above
FLAG-APC11 = FLAG-APC11 (UniProt Q9NYG5); assay: as above
FLAG-CUL5 [6] = target: FLAG-CUL5 (UniProt Q93034); assay: as above; remark: listed apart in the source
[7] = target: endogenous CUL5 (human (endogenous in HEK293, MIA PaCa-2, A549, Hep3B, PLC/PRF/5)) (UniProt Q93034); assay: co-IP; endogenous IP with anti-CUL5 antibody (normal mouse IgG as control) and protein G sepharose from lysates of MIA PaCa-2, A549, Hep3B and PLC/PRF/5 cells; in some panels siRNA to APC11 or SAG for 72 h; remark: listed apart in the source

binding (FLAG-CUL5 [1]): binds
Molecule: endogenous CAND1 (from UniProt Q86VP6 1-1230)

binding (FLAG-CUL5 [2]): binds
binding [3]: binds
binding (FLAG-CUL5-N (aa 1-400)): no binding
binding (FLAG-CUL5 [1]): binds
binding [4]: no binding
binding (FLAG-CUL5-C (aa 385-780)): no binding
Molecule: endogenous APC11 (from UniProt Q9NYG5 1-84)

binding [3]: binds
binding (FLAG-CUL5 [1]): binds
binding (FLAG-CUL5-C (aa 385-780)): binds
Molecule: endogenous SAG (from UniProt Q9UBF6 1-113)

binding (FLAG-CUL5 [1]): binds
Molecule: endogenous COPS5 (from UniProt Q92905 1-334)

binding [5]: binds
binding (FLAG-APC11 W14A): binds weakly
binding (FLAG-APC11 W8A): binds weakly
binding (FLAG-APC11 I5A): binds weakly
binding (FLAG-APC11 V3A): binds weakly
binding (FLAG-SAG): binds
binding (FLAG-APC11): binds
Molecule: endogenous CUL5 (from UniProt Q93034 1-780)

binding (FLAG-SAG): binds
Molecule: neddylated CUL5 (from UniProt Q93034 1-780; Q15843 1-76)

binding (FLAG-CUL5 [6]): binds
binding [7]: binds
B1: endogenous UBE2F (enzyme, UniProt Q969M7 1-185)
chain: MLTLASKLKRDDGLKGSRTAATASDSTRRVSVRDKLLVKEVAELEANLPCTCKVHFPDPNKLHCFQLTVTPDEGYYQGGKFQFETEVPDAYNMVPPKVKCLTKIWHPNITETGEICLSLLREHSIDGTGWAPTRTLKDVVWGLNSLFTDLLNFDDPLNIEAAEHHLRDKEDFRNKVDDYIKRYAR
